# Experimental data taken from the supplement of paper PMC8183993.
# Values joined by “and” are separate entries in the source; they are usually repeats but may differ in a detail not shown here. Identical values can stand only once. Counter-ions that a name gives are not always drawn. ± gives the standard deviation of the averaged measurements. The full ranking holds about 3,200 compounds; the median of “nuclei count (viability) relative to DMSO” is about 99, and the lowest 2% start at about 16. The list shows a part of the results.
# System: U2OS
# Test: nuclei count (viability) relative to DMSO (% of DMSO); higher = more viable cells
# Details: 10 µM; 24 h
# Description: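 Primary image-based screen in U2OS cells: compounds at 10 uM for 24 h, then a 1 h o-propargyl-puromycin (OPP) pulse, click labelling, and high-throughput microscopy. Mean cytoplasmic OPP intensity and nuclei count were normalised to DMSO wells within each plate (DMSO = 100) and averaged over triplicate plates.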
row,SMILES,nuclei count
1,CC(C)c1cccc(C(C)C)c1O [Propofol],104
2,"CC12NC(Cc3ccccc31)c1ccccc12 (single isomer, unassigned; (+)) [(+)-MK 801 maleate]",94.2
3,CCC(Oc1ccc(Cl)cc1)C(=O)OC1C[C@H]2CC[C@@H](C1)N2C (stereo partly drawn) [SM-21 maleate],103
4,CCCN1CCC[C@@H]2Cc3n[nH]cc3C[C@H]21 [(-)-Quinpirole hydrochloride],109
5,C=C1C[C@@H]2[C@H](CC[C@]3(C)C(=O)CC[C@@H]23)[C@@]2(C)C=CC(=O)C=C12 [Exemestane],96.2 ± 2.1
6,CC(=O)[C@H]1CC[C@H]2[C@@H]3CC[C@H]4C[C@H](O)CC[C@]4(C)[C@H]3C(=O)C[C@]12C [Alfaxalone],108
7,CC(=O)c1c(O)c(C)c(O)c(Cc2c(O)c3c(c(C(=O)/C=C/c4ccccc4)c2O)OC(C)(C)C=C3)c1O [Rottlerin],87.7
8,C[C@H]1CNCCc2ccc(Cl)cc21 [Lorcaserin HCl],95.6
9,CC1=NN=C(c2ccc(N)cc2)c2cc3c(cc2C1)OCO3,84.8
10,Cn1c2c(c3ccccc31)CCNCC2,102
11,CN1C(=O)CCS(=O)(=O)C1c1ccc(Cl)cc1 (stereo not drawn) [Chlormezanone],94.6 ± 11
12,O=P1(N(CCCl)CCCl)NCCCO1 (stereo not drawn) [Cyclophosphamide],103
13,CCCN[C@@H]1CCc2c(OC)cccc2[C@@H]1C [(+)-AJ 76 hydrochloride],102
14,C[C@]12COC(=O)C[C@@H]1CC[C@@H]1[C@@H]2CC[C@@]2(C)[C@H]1CC[C@]2(C)O [Oxandrolone],88.1
15,CCOC(=O)c1ncn2c1CN(C)C(=O)c1cc(N=[N+]=[N-])ccc1-2,94.8
16,CCCN1CCO[C@@H]2c3cc(O)ccc3OC[C@H]21,106 and 96.6
17,Cc1sc2c(c1C)C(c1ccc(Cl)cc1)=N[C@@H](CC(=O)OC(C)(C)C)c1nnc(C)n1-2,87.6
18,"C=CCN1CC[C@]2(C)c3cc(O)ccc3C[C@H]1C2C (single isomer, unassigned; (+))",94.7
19,CCC(=O)O[C@H]1CC[C@H]2[C@@H]3CCC4=CC(=O)CC[C@]4(C)[C@H]3CC[C@]12C [Testosterone propionate],97.1
20,CCOc1cncc(/C=C/CCNC)c1 [TC 2559 difumarate],97.2
21,COc1ccc(OC)c(C(O)C(C)N)c1 (stereo not drawn) [Methoxamine hydrochloride],91.4
22,Ic1cncc(OC[C@@H]2CCN2)c1,97.8
23,C(=C\c1ccccc1)/CN1CCN(CCOC(c2ccccc2)c2ccccc2)CC1,105
24,C[C@@H]1CN([C@H]2CC[C@](C#N)(c3ccc(F)cc3)CC2)CC[C@]1(C(=O)O)c1ccccc1 [Levocabastine hydrochloride],87.2
25,c1ccc2sc(C3(N4CCCCC4)CCCCC3)cc2c1 [BTCP maleate],106
26,O=C(CCCN1CCC(n2c(=O)[nH]c3ccccc32)CC1)c1ccc(F)cc1 [Benperidol],85.4
27,C=CCC1(CC(C)C)C(=O)NC(=O)NC1=O [Butalbital],107

row,SMILES,nuclei count
1,O=C1C2CCN(CC2)C1(CO)CO,91.8
2,N[C@@H]1C[C@H]1c1ccccc1.N[C@H]1C[C@@H]1c1ccccc1 [Tranylcypromine hemisulfate],108
3,C[C@]12CCC(=O)C=C1CC[C@@H]1[C@@H]2CC[C@]2(C)C(=O)CC[C@@H]12 [Androstenedione],87.3
4,OC(c1ccccc1)(c1ccccc1)C1CCNCC1 [Azacyclonol],108
5,COc1cc(N)c(Cl)cc1C(=O)NC1CN2CCC1CC2 (stereo not drawn) [Zacopride hydrochloride],98.7
6,COc1cc(OC)c(OC)cc1C=O [Asaraldehyde (Asaronaldehyde)],109
7,C[N+]1(C)CCCC(OC(=O)C(O)(c2ccccc2)c2ccccc2)C1 (stereo not drawn) [Mepenzolate bromide],99.5
8,N=C(NCc1ccc(Cl)cc1)SCCCc1c[nH]cn1 [Clobenpropit dihydrobromide],98.3
9,CCC1(C)CC(=O)NC(=O)C1 [Bemegride],106
10,C[C@@]12C(=O)OC(=O)[C@]1(C)[C@H]1CC[C@@H]2O1 [Cantharidin],84.8 ± 4.8
11,CCCC(C)(COC(N)=O)COC(=O)NC(C)C (stereo not drawn) [Carisoprodol],101
12,Cc1ccccc1-n1c(Cn2ncc3c(N)ncnc32)nc2cccc(C)c2c1=O,91.1
13,C/C(O)=C(\C#N)C(=O)Nc1cc(Br)ccc1Br,94.3
14,Cc1ccc2c(c1)C1(CCN(CCc3nc(-c4ccccc4)oc3C)CC1)OC(=O)N2,101
15,C[C@]12CC[C@@H](O)C[C@H]1CC[C@@H]1[C@@H]2CC[C@]2(C)C(=O)CC[C@@H]12 [3-alpha-Hydroxy-5-beta-androstan-17-one],99.8
16,CCN1CC2(OC(=O)c3ccccc3NC(C)=O)CCC(OC)C34C1C(CC23)C1(O)CC(OC)C2CC4C1(O)C2OC (stereo not drawn) [Lappaconite HBr],108
17,N[C@H](C(=O)O)c1cc(O)no1 [Ibotenic acid],103
18,CN(C)C(=O)Oc1ccc[n+](C)c1 [Pyridostigmine iodide],106
19,C[C@@H]1O[C@@H](O[C@@H]2C=C3CC[C@@H]4[C@H](CC[C@]5(C)[C@@H](c6ccc(=O)oc6)CC[C@]45O)[C@@]3(C)CC2)[C@H](O)[C@H](O)[C@H]1O [Proscillaridin A],16.5
20,CN1CCN(c2nc3ccccc3nc2Cl)CC1,102
21,C#CCN(C)[C@H](C)Cc1ccccc1 [Selegiline hydrochloride],98.2
22,COc1cc(C(=O)N2CC[C@@H](O)[C@@H](N)C2)cc2nc(-c3cc4ccccc4n3CC3CC3)n(C)c12,91.9
23,CC(C)(OO)c1ccccc1 [Cumene hydroperoxide],67.6
24,O=c1[nH]c2ccccc2n1C1CCN(CCCC(c2ccc(F)cc2)c2ccc(F)cc2)CC1 [Pimozide],93.8 ± 7.6
25,O=C(O)/C=C/CO [trans-4-Hydroxycrotonic acid],102
26,Cc1cc2c(C(C)C)c(O)c(O)c(C=O)c2c(O)c1-c1c(C)cc2c(C(C)C)c(O)c(O)c(C=O)c2c1O [Gossypol],88.6 ± 4.1
